# Measurements taken from the supplement of paper PMC8728848.
# This is one part of the list.
# B1: GNA (Galanthus nivalis), P30617 (protein)
# chain: MAKASLLILAAIFLGVITPSCLSDNILYSGETLSTGEFLNYGSFVFIMQEDCNLVLYDVDKPIWATNTGGLSRSCFLSMQTDGNLVVYNPSNKPIWASNTGGQNGNYVCILQKDRNVVIYGTDRWATGTHTGLVGIPASPPSEKYPTAGKIKLVTAK
# Assays:
# Test in all cases: glycan array binding signal (z-score within array); higher = stronger binding
# Details in all cases: glycan notation: IUPAC condensed, linker removed
# [1] = target: Neu5Ac(a2-3)Gal(b1-3)[GlcNAc(b1-6)]GalNAc
# How it was run: (§1)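 Glycan array data were curated from 3228 arrays in the Consortium for Functional Glycomics database and kept only where the protein sequence was available. Glycan names were converted to IUPAC-condensed notation, and columns mapping to the same glycan were averaged. The binding signal is a within-array Z-score, averaged across arrays of the same protein sequence at different concentrations or buffers and across linkers. Negative Z-scores can be read as non-binding.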
# [2] = target: Neu5Ac(a2-3)Gal(b1-3)[Neu5Ac(a2-3)Gal(b1-4)]GlcNAc
# How it was run: as §1
# [3] = target: Neu5Ac(a2-3)Gal(b1-3)[Neu5Ac(a2-6)]GalNAc
# How it was run: as §1
# [4] = target: Neu5Ac(a2-3)Gal(b1-3)[Neu5Ac(a2-6)]GlcNAc(b1-3)[Fuc(a1-3)[Gal(b1-4)]GlcNAc(b1-6)]Gal(b1-4)Glc
# How it was run: as §1
# [5] = target: Neu5Ac(a2-3)Gal(b1-3)]Neu5Ac(a2-3)Gal(b1-4)]GlcNAc
# How it was run: as §1
# Neu5Ac(a2-3)Gal(b1-4)Glc = target: Neu5Ac(a2-3)Gal(b1-4)Glc
# How it was run: as §1
# [6] = target: Neu5Ac(a2-3)Gal(b1-4)GlcNAc
# How it was run: as §1
# [7] = target: Neu5Ac(a2-3)Gal(b1-4)GlcNAc(b1-2)Man
# How it was run: as §1
# [8] = target: Neu5Ac(a2-3)Gal(b1-4)GlcNAc(b1-2)Man(a1-3)[GlcNAc(b1-2)Man(b1-4)GlcNAc(b1-2)Man(a1-6)]Man(b1-4)GlcNAc(b1-4)GlcNAc
# How it was run: as §1
# [9] = target: Neu5Ac(a2-3)Gal(b1-4)GlcNAc(b1-2)Man(a1-3)[GlcNAc(b1-4)][Neu5Ac(a2-3)Gal(b1-4)GlcNAc(b1-2)Man(a1-6)]Man(b1-4)GlcNAc(b1-4)GlcNAc
# How it was run: as §1
# [10] = target: Neu5Ac(a2-3)Gal(b1-4)GlcNAc(b1-2)Man(a1-3)[Neu5Ac(a2-3)Gal(b1-4)GlcNAc(b1-2)Man(a1-6)]Man(b1-4)GlcNAc(b1-4)GlcNAc
# How it was run: as §1
# [11] = target: Neu5Ac(a2-3)Gal(b1-4)GlcNAc(b1-2)Man(a1-3)[Neu5Ac(a2-3)Gal(b1-4)GlcNAc(b1-2)Man(a1-6)]Man(b1-4)GlcNAc(b1-4)[Fuc(a1-6)]GlcNAc
# How it was run: as §1
# [12] = target: Neu5Ac(a2-3)Gal(b1-4)GlcNAc(b1-2)Man(a1-3)[Neu5Ac(a2-6)Gal(b1-4)GlcNAc(b1-2)Man(a1-6)]Man(b1-4)GlcNAc(b1-4)GlcNAc
# How it was run: as §1
# [13] = target: Neu5Ac(a2-3)Gal(b1-4)GlcNAc(b1-2)[Neu5Ac(a2-3)Gal(b1-4)GlcNAc(b1-4)]Man(a1-3)[GlcNAc(b1-4)][Neu5Ac(a2-3)Gal(b1-4)GlcNAc(b1-2)[Neu5Ac(a2-3)Gal(b1-4)GlcNAc(b1-6)]Man(a1-6)]Man(b1-4)GlcNAc(b1-4)GlcNAc
# How it was run: as §1
# [14] = target: Neu5Ac(a2-3)Gal(b1-4)GlcNAc(b1-2)[Neu5Ac(a2-3)Gal(b1-4)GlcNAc(b1-4)]Man(a1-3)[GlcNAc(b1-4)][Neu5Ac(a2-3)Gal(b1-4)GlcNAc(b1-4)Man(a1-6)]Man(b1-4)GlcNAc(b1-4)GlcNAc
# How it was run: as §1
# [15] = target: Neu5Ac(a2-3)Gal(b1-4)GlcNAc(b1-2)[Neu5Ac(a2-3)Gal(b1-4)GlcNAc(b1-6)]Man(a1-6)[Neu5Ac(a2-3)Gal(b1-4)GlcNAc(b1-2)Man(a1-3)]Man(b1-4)GlcNAc(b1-4)GlcNAc
# How it was run: as §1
# [16] = target: Neu5Ac(a2-3)Gal(b1-4)GlcNAc(b1-2)[Neu5Ac(a2-3)Gal(b1-4)GlcNAc(b1-6)]Man(a1-6)[Neu5Ac(a2-3)Gal(b1-4)GlcNAc(b1-2)Man(a1-3)][GlcNAc(b1-4)]Man(b1-4)GlcNAc(b1-4)GlcNAc
# How it was run: as §1
# [17] = target: Neu5Ac(a2-3)Gal(b1-4)GlcNAc(b1-3)Gal
# How it was run: as §1
# [18] = target: Neu5Ac(a2-3)Gal(b1-4)GlcNAc(b1-3)Gal(b1-3)GlcNAc
# How it was run: as §1
# [19] = target: Neu5Ac(a2-3)Gal(b1-4)GlcNAc(b1-3)Gal(b1-4)GlcNAc
# How it was run: as §1
# [20] = target: Neu5Ac(a2-3)Gal(b1-4)GlcNAc(b1-3)Gal(b1-4)GlcNAc(b1-2)Man(a1-3)[Neu5Ac(a2-3)Gal(b1-4)GlcNAc(b1-3)Gal(b1-4)GlcNAc(b1-2)Man(a1-6)]Man(b1-4)GlcNAc(b1-4)GlcNAc
# How it was run: as §1
# [21] = target: Neu5Ac(a2-3)Gal(b1-4)GlcNAc(b1-3)Gal(b1-4)GlcNAc(b1-3)Gal(b1-4)GlcNAc
# How it was run: as §1
# [22] = target: Neu5Ac(a2-3)Gal(b1-4)GlcNAc(b1-3)Gal(b1-4)GlcNAc(b1-3)Gal(b1-4)GlcNAc(b1-2)Man(a1-3)[Neu5Ac(a2-3)Gal(b1-4)GlcNAc(b1-3)Gal(b1-4)GlcNAc(b1-3)Gal(b1-4)GlcNAc(b1-2)Man(a1-6)]GalNAc
# How it was run: as §1
# [23] = target: Neu5Ac(a2-3)Gal(b1-4)GlcNAc(b1-3)Gal(b1-4)GlcNAc(b1-3)GalNAc
# How it was run: as §1
# [24] = target: Neu5Ac(a2-3)Gal(b1-4)GlcNAc(b1-3)Gal(b1-4)GlcNAc(b1-3)[Neu5Ac(a2-3)Gal(b1-4)GlcNAc(b1-3)Gal(b1-4)GlcNAc(b1-6)]GalNAc
# How it was run: as §1
# [25] = target: Neu5Ac(a2-3)Gal(b1-4)GlcNAc(b1-3)Gal(b1-4)GlcNAc(b1-6)[Gal(b1-3)]GalNAc
# How it was run: as §1
# [26] = target: Neu5Ac(a2-3)Gal(b1-4)GlcNAc(b1-3)Gal(b1-4)[Fuc(a1-3)]GlcNAc
# How it was run: as §1
# [27] = target: Neu5Ac(a2-3)Gal(b1-4)GlcNAc(b1-3)GalNAc
# How it was run: as §1
# [28] = target: Neu5Ac(a2-3)Gal(b1-4)GlcNAc(b1-3)[Neu5Ac(a2-3)Gal(b1-4)GlcNAc(b1-6)]GalNAc
# How it was run: as §1
# [29] = target: Neu5Ac(a2-3)Gal(b1-4)GlcNAc(b1-6)GalNAc
# How it was run: as §1
binder,measurement,setting,value
B1,glycan array binding signal (z-score),[1],-0.166
same,glycan array binding signal (z-score),[2],-0.205
same,glycan array binding signal (z-score),[3],-0.121
same,glycan array binding signal (z-score),[4],-0.164
same,glycan array binding signal (z-score),[5],-0.157
same,glycan array binding signal (z-score),Neu5Ac(a2-3)Gal(b1-4)Glc,-0.111
same,glycan array binding signal (z-score),[6],-0.179
same,glycan array binding signal (z-score),[7],-0.147
same,glycan array binding signal (z-score),[8],-0.242
same,glycan array binding signal (z-score),[9],-0.18
same,glycan array binding signal (z-score),[10],-0.163
same,glycan array binding signal (z-score),[11],-0.163
same,glycan array binding signal (z-score),[12],-0.235
same,glycan array binding signal (z-score),[13],-0.185
same,glycan array binding signal (z-score),[14],-0.178
same,glycan array binding signal (z-score),[15],-0.108
same,glycan array binding signal (z-score),[16],-0.169
same,glycan array binding signal (z-score),[17],-0.164
same,glycan array binding signal (z-score),[18],-0.19
same,glycan array binding signal (z-score),[19],-0.204
same,glycan array binding signal (z-score),[20],0.02
same,glycan array binding signal (z-score),[21],-0.093
same,glycan array binding signal (z-score),[22],0.162
same,glycan array binding signal (z-score),[23],-0.172
same,glycan array binding signal (z-score),[24],-0.132
same,glycan array binding signal (z-score),[25],-0.093
same,glycan array binding signal (z-score),[26],-0.082
same,glycan array binding signal (z-score),[27],-0.218
same,glycan array binding signal (z-score),[28],-0.171
same,glycan array binding signal (z-score),[29],-0.171
